Some of the results follow.

The assay addresses T1, OsWOX13 (Oryza sativa, UniProt Q5QMM3 1-267).
T1 sequence: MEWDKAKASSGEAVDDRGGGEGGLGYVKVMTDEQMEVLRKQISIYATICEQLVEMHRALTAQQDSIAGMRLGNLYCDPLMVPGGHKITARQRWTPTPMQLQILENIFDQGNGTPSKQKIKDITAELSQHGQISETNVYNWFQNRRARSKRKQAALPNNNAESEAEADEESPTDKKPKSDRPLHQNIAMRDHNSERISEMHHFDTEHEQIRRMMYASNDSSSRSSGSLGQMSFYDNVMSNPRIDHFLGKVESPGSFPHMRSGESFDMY
The assay can be described thus: protein-binding microarray (RPBM); PBS, 2% BSA, 51.3 ng/ul salmon testes DNA, 50 uM zinc acetate, 200 nM TF, 25 C, 1 h; high values mean tight binding. Particulars: protein: recombinant; tags: N-terminal polyhistidine and DsRed monomer fusion (pET32a); label: CyDye5-dUTP incorporated in the synthesized complementary strand; 3' TTTTT single-stranded linker to array surface; dsDNA, one strand shown. Put shortly:
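For the binding signal, per-feature fluorescence intensity was read in arbitrary units on an Axon 4000B scanner. Before scanning, a 2% BSA-blocked custom Agilent array made double-stranded with Cy5-dUTP was washed after 1 h at 25 °C with 200 nM protein and 50 µM zinc acetate. The proteins were Ni–NTA-purified transcription factors with N-terminal polyhistidine and DsRed fusions, expressed in E. coli BL21-CodonPlus.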
“CCCACACGATTGACGCCGAGATTCGTGCTCTTGTACATAACGGAGTCACCTAGTGCAG”: the binding signal is 7210 fluorescence intensity (a.u.).
Take “ATTACTGCTAATTAAAATGTGCAATGATATCTCTGATTTTCGGAGTCACCTAGTGCAG”: the binding signal was 10300 fluorescence intensity (a.u.).
For the sequence “GCAAATTGACATGTGCCATGGAGTATGGCAAGAAAAGATGCGGAGTCACCTAGTGCAG”, the binding signal was 46200 fluorescence intensity (a.u.).
As for “ACTTGACAGGTGACACATTGTACATCTATGAGTTGCGGGTCGGAGTCACCTAGTGCAG”, the figure is 28000 fluorescence intensity (a.u.); as for “CCCAGGTAATTACGAACTAGTCCTTCTCCAGCCCGGCGACCGGAGTCACCTAGTGCAG”, 25000 fluorescence intensity (a.u.); as for “ACTAATATTCAATTAATCATATCGCTAGTCCTACTAATAGCGGAGTCACCTAGTGCAG”, 20500 fluorescence intensity (a.u.).
The result for “ATTAACACAAATCATACTGATCGTTCCGCACAGGAAGATACGGAGTCACCTAGTGCAG” reads 11300 fluorescence intensity (a.u.); that for “GATAAAGAGAGATAATTATATTAAGGTTTGATTAAGTTAACGGAGTCACCTAGTGCAG”, 3680 fluorescence intensity (a.u.).
The result for “TGAGGTGATTGTGGTTGCAAAAGAGAGAGAATCTGGATGTCGGAGTCACCTAGTGCAG” reads 12900 fluorescence intensity (a.u.); that for “AATAAACTGTGTCTATATTTATAATACTATAATATATCGTCGGAGTCACCTAGTGCAG”, 4270 fluorescence intensity (a.u.); that for “TACTACTAATTATTGTCTTCTTAGTAATCACCAAGTGTGCCGGAGTCACCTAGTGCAG”, 20700 fluorescence intensity (a.u.).
For “AAACTTAATAGGCTATAATAAGCGGACTGTATAAGTTTGTCGGAGTCACCTAGTGCAG”, the binding signal is 5760 fluorescence intensity (a.u.).
For “AGCTATAAATTTTCGTGTTTAATTTTAATCGTTCATTTTACGGAGTCACCTAGTGCAG”, the binding signal is 5370 fluorescence intensity (a.u.).
The result for “AATGGCTGTTTGTTCCTTGATTGCCACGTCTCTTTCCATCCGGAGTCACCTAGTGCAG” reads 10300 fluorescence intensity (a.u.).
The result for “CGCTAATTAAGCTTAACGAAAATTATGGAGTATTAATCCACGGAGTCACCTAGTGCAG” reads 36500 fluorescence intensity (a.u.).
The result for “TTAACTTGTGATTAATTAAGTATTAGCCTAAAAGAGCTTTCGGAGTCACCTAGTGCAG” reads 20700 fluorescence intensity (a.u.); that for “ATGTGCAAATGATTGGGTTCGTTTCGTTCTGGCAATCTAGCGGAGTCACCTAGTGCAG”, 24300 fluorescence intensity (a.u.).
Turning to “AGGCTAACAGCCAATCAAGTTTTGGATTAAACGGTTAAACCGGAGTCACCTAGTGCAG”, the binding signal was 19500 fluorescence intensity (a.u.).
As for “TTACAGTGTAATTACATGCAAGTTACAGTGTAATTACACTCGGAGTCACCTAGTGCAG”, the figure is 6140 fluorescence intensity (a.u.); as for “AATTAAGAAATTAGATAGGATTATACAAGGGATGGTTGTGCGGAGTCACCTAGTGCAG”, 3740 fluorescence intensity (a.u.).
The result for “GGAAGCTAGTGATTGCCGGTGGCCTAAGGAGTTTGTTGTCCGGAGTCACCTAGTGCAG” reads 3680 fluorescence intensity (a.u.); that for “TTTAAATTTTAATGATCGGTGATTTTGTGCAGGGAAAACGCGGAGTCACCTAGTGCAG”, 24200 fluorescence intensity (a.u.); that for “TTCCATCAATCAAAACTTTCCTACACACAAACTTCCAACTCGGAGTCACCTAGTGCAG”, 14100 fluorescence intensity (a.u.).
In the case of “CGTTAACTTTCGACTAATAATCATACTAACTATATATACTCGGAGTCACCTAGTGCAG”, the binding signal was 6830 fluorescence intensity (a.u.).
As for “ACATGATGACCTTAAATTCGACTAATATGAAAAGAAACACCGGAGTCACCTAGTGCAG”, the figure is 5080 fluorescence intensity (a.u.); as for “CCTGATTTTAATAATGATACATCCAAACTAAAATCACCAACGGAGTCACCTAGTGCAG”, 32000 fluorescence intensity (a.u.); as for “GCATGTTATTAATTAAGTATTAATAATTTAGAACTTAAAACGGAGTCACCTAGTGCAG”, 6360 fluorescence intensity (a.u.).
“TACATCCCTACTAATTGTGTCATGTATCAATAATGATATGCGGAGTCACCTAGTGCAG”: the binding signal is 3560 fluorescence intensity (a.u.).
As for “CTAATATGGATAGATTGAAACATCAAGGACTAAACTGAGCCGGAGTCACCTAGTGCAG”, the figure is 27800 fluorescence intensity (a.u.).
The result for “ATTCGTGCTGTTTAAAATTTTAATTAGGAGGTGAATTAAACGGAGTCACCTAGTGCAG” reads 6560 fluorescence intensity (a.u.); that for “GTCCAAGTCATCAATAATTAGACTTTTCAACACATGACTGCGGAGTCACCTAGTGCAG”, 10800 fluorescence intensity (a.u.).
As for “GCACGTGTGATTACACTTTCAATAGAAAAGTACTTCATCCCGGAGTCACCTAGTGCAG”, the figure is 5480 fluorescence intensity (a.u.); as for “CGCAAAATAACTGGCAGACTGAATTTAGTCTTATCACCTTCGGAGTCACCTAGTGCAG”, 12700 fluorescence intensity (a.u.).
Regarding “ATAGAAAATATTTAATGCTAATTAGTAGGCTGCGATTGTACGGAGTCACCTAGTGCAG”, the binding signal is 6740 fluorescence intensity (a.u.).
As for “AAAGATTATCCGTAATCTTGCTGATGCTCTCACACCCCTTCGGAGTCACCTAGTGCAG”, the figure is 3630 fluorescence intensity (a.u.); as for “CTTCTGATCAGATTCAGATTGCCAACACTGCAACCTTCTGCGGAGTCACCTAGTGCAG”, 7710 fluorescence intensity (a.u.).
As for “ATTGAAAATCATTAATTAATTAATTAAGAACACCATGAACCGGAGTCACCTAGTGCAG”, the figure is 40400 fluorescence intensity (a.u.); as for “GAACTAAAATGAGGATAAAATGATTTTAGACTTGGGCGGCCGGAGTCACCTAGTGCAG”, 4260 fluorescence intensity (a.u.); as for “GAAACAGATTTTCTCAGCTAATCGCAACAATCATGTCTGACGGAGTCACCTAGTGCAG”, 4600 fluorescence intensity (a.u.).
Turning to “AGGGATTTTAATTGGGTAGTACTAATGCGCGGGTGTCACCCGGAGTCACCTAGTGCAG”, the binding signal is 11000 fluorescence intensity (a.u.).
As for “CTTTTGACATTAATTAATCAATTGGTAGGTTTTGTGCGTTCGGAGTCACCTAGTGCAG”, the figure is 36100 fluorescence intensity (a.u.); as for “TAAATTTTATAATCATGAATATATGAAATATAATTTCAGTCGGAGTCACCTAGTGCAG”, 11400 fluorescence intensity (a.u.).

(Values after article PMC7819943, “Rice protein-binding microarrays: a tool to detect cis-acting elements near promoter regions in rice”.)
